Measurements published in paper PMC8938449.
These are yes or no findings as the source states them, for the method shown. Binding seen in cells or lysates may run through a third protein. Some entries that bind do so weakly or less than the wild type.

How the values were obtained:
[1] = target: T1, Siwi K611A mutant (Bombyx) (UniProt A8D8P8); test: co-IP; immunoprecipitation from the mitochondrial fraction of BmN4 cells that expressed WT Siwi or Siwi K611A under WT Siwi-free conditions; Papi detected with anti-Papi and anti-Papi-pSer547
T1 sequence: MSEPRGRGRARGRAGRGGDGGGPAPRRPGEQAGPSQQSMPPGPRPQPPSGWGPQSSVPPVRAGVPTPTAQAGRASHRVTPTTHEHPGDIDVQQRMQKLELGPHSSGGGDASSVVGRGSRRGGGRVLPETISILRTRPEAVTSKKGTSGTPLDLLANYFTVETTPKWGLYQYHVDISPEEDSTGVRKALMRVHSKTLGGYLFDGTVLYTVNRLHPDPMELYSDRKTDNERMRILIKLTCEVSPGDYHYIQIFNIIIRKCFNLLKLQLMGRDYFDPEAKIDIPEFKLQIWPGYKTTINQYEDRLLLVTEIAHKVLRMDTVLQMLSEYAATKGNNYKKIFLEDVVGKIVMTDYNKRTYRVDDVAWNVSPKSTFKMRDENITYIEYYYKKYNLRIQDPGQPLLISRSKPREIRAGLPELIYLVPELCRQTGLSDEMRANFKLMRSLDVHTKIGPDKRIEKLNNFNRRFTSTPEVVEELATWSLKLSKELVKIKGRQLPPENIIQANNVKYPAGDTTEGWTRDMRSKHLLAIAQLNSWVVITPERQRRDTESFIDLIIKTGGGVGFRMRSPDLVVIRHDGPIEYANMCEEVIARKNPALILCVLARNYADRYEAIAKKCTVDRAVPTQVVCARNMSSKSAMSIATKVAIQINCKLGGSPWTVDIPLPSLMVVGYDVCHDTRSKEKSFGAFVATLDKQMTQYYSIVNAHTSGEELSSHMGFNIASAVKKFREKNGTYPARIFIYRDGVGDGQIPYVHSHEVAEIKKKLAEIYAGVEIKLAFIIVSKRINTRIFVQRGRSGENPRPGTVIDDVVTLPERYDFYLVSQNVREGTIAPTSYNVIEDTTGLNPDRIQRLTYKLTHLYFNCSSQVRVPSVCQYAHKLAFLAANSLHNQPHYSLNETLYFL

[2] = target: T2, WT Siwi, expressed in BmN4 cells (Bombyx) (UniProt A8D8P8); test: as above
T2 sequence: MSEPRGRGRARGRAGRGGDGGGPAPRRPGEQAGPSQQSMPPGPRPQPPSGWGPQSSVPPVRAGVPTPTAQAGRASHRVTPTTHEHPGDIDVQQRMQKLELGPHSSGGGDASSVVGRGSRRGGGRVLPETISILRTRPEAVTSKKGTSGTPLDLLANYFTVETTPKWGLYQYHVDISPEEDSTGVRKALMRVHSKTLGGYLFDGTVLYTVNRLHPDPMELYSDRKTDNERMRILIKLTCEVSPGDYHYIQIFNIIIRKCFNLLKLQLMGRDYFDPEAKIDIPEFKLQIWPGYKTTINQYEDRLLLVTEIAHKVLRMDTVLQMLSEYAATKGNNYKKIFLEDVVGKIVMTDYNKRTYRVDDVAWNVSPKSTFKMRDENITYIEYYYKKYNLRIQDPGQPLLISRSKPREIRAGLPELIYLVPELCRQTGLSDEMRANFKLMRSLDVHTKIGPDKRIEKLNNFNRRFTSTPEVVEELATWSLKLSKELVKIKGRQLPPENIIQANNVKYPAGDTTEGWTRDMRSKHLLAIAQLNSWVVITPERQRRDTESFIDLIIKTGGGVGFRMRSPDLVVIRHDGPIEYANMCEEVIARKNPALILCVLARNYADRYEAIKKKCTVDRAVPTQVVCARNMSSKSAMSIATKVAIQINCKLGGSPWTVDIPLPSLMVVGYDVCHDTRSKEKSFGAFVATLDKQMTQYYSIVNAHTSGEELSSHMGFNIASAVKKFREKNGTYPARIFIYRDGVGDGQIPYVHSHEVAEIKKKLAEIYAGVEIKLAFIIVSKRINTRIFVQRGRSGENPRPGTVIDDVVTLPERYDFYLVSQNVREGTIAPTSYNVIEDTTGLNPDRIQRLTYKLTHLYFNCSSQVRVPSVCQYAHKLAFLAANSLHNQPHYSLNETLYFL

- binding [1]: binds
- binding [2]: binds
B1: Papi, endogenous (protein, UniProt H9JD76 1-629)
chain: MSLNTKLALPIALGLSLVTVTAFVAYYVLKRDEEENDNKTVKITKINTIEIHVPKSIVPALIGRNGSNIKDLQKKSGAQIHFKKFTDQDYDVCVVRGRADTTQLAETLIHDFIKQQPTIMSESITVPSWSCGRIIGSGGENVNDISHRSGARVKVESPKSTDKVAEHLVTFRGTKEQIEVAKKLVENCVSLERCRREIEQSKRPPRHSSSPPSPCPSPGDRDADADAQGDVDHTRVKYKRPETTGPSIEVYVSAVSSPSRFWVQFVGPQVAQLDDLVAHMTEYYSKKENREAHTLRHVSVGQVVAAVFRHDGRWYRARVHDIRPNEFDSSQQVADVFYLDYGDSEYVATHELCELRADLLRLRFQAMECFLAGVRPASGEEAVSPSGQTWDKWHPQAVERFEELTQVARWKALVSRTCTYKKTATAEGEKDKEIPGIKLFDVTDEGELDVGAVLVAEGWAVAGPAPSPRPSPPRGHTTPFGDLSKSKVLSMTGGGGRSSSVPKDHKDDGSNVLTVEGDDSKDKDGITASKSLASGLEKSDRHPLSISNFDLSYPDPSRNKQLNGSDDFLHGERQNIDNEITIDTLVPPSPLSNAPILSKTLQDEFKANMNRIDSHHSNLENLGKSAFEK
